Laboratory results as given in the RNAGym collection of RNA variant scans (doi:10.1073/pnas.2313332121).
This sample is rich in variants without activity.

B1: TPR 5TU (parent)
chain: GGAUCUUCUCGAUCUAACAAAAAAGACAAAUCUGCCACAAAGCUUGAGAGCAUCUUCGGAUGCAGAGGCGGCAGCCUUCGGUGGCGCGAUAGCGCCAACGUUCUCAACUAUGACACGCAAAACGCGUGCUCCGUUGAAUGGAGUUUAUCAUG

Variants of: B1
Assay: polymerase ribozyme fitness, log enrichment relative to wild type (log ratio); higher = more active; in vitro selection for triplet polymerase activity
In short: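 One round of in vitro selection, in triplicate, was applied to PCR-built, transcribed mutant libraries of each subunit of a heterodimeric triplet polymerase ribozyme. The steps were annealing with a biotinylated primer, partner subunit and triplets, incubation frozen at −7 °C, gel excision of extended constructs, streptavidin-bead capture and RT-PCR. Fitness is the logarithm, base 2, of genotype enrichment over wild-type enrichment from inverse-variance-weighted replicate averages of Illumina-sequenced inputs and outputs, keeping genotypes with ≥10 input reads and ≥1 read per output.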

Polymerase ribozyme fitness (log ratio), ≤ -4.2:
GGAUCUUCUCGAUCUAACAAAAAAGACAAGUCUGCCACAAAGCUUGAGAGCAUCUUCGGAUGCAGAGGCGGCAGCCUUCGGUGGCGCGAUAGCGCCAACGUUCUCAACUAUGACACGCAAAACGCGUGCUCAGUUGAAUGGAGUUUAUCAUG [A30G C132A]
GGAUCUUCUCGAUCUAACAAAAAAGACAAGUCUGCCACAAAGCUUGAGAUCAUCUUCGGAUGCAGAGGCGGCAGCCUUCGGUGGCGCGAUAGCGCCAACGUUCUCAACUAUGACACGCAAAACGCGUGCUCCGUUGAAUCGAGUUUAUCAUG [A30G G50U G140C]
GGAUCUUCUCGAUCUAACAAAAAAGACAAGUCUGCCACAAAGCUUGAGAGCAUCUUCGGAUGCAGAGGCGGCAGCCUUCGGUGGCGCCAUGGAGCCAACGUUCUCAACUAUGACACGCAAAAAGCGUGCUCCGUUGAAUCGAGUUUAUCAUG [A30G G88C A91G C93A C123A G140C]
GGAUCUUCUCGAUCUAACAAAAAAGACAAGUCUGCCACAAAGCUUGAGAGCAUCUUCGGAUGCAGAGGCGGCAGCCUUCGGUGGCGCCAUAGCGCCAACGUUCUCACCUAUGACACGCAAAAUGCGUGCUCCGUUGAAUGGAGUUUAUCAUG [A30G G88C A107C C123U]
GGAUCUUCUCGAUCUAACAAAAAAGACAAGGCUGCCACAAAGCUUGAGAGCAUCUUCGGAUGCAGAGGCGGCAGCGUUCGGUGGCGCGAUAGCACCAACGUUCUCAGCUAUGACACGCAAAACGCGUGCUCCGUUAAAUGGAGUUUAUCAUG [A30G U31G C76G G94A A107G G136A]
GGAUCUUCUCGAUCUAACAAAAAAGACAAGUCAGUCACAAAGCUUGAGAGCAUGUUCGGAUGCAGAGGCGGCAGCCUUCGGUGGAGCGAUAGCGCCAACGUUCUCAACUAUGACACGCAAAACGCGUUCUCCGUUGAAUGGAGUUUAUCAUG [A30G U33A C35U C54G C85A G128U]
GGAUCUUCUCGAUCUAACAAAAAAGACAAGUCUGCCACAAAGCUACACAGCAUUUUCGGAUGCAGAGGCGGCAGCCUUCGGUGGCGCGAUAGAGCCAACGUUCUGAACUAUGACACGCAAAACACGUGCUCCGGUGAAUGGAGUUUAUCAUG [A30G U45A G46C G48C C54U C93A C105G G124A U134G]
GGAUCUUCUCGAUCUAACAAAAAAGACAAGUCUGCCACAAAGCUGCAGAGCAUCUUCGGAUGCAGAUGCGGCAGCCUUCGGUGGCGCGAGAGCGCCAACGUUCUCAACUAUGACACGCAAAACGCGUGCUCCGUGGAAUGGAGUUUAUCAUG [A30G U45G G46C G67U U90G U135G]
GGAUCUUCUCGAUCUAACAAAAAAGACAAGUCUGCCACAAAGCUUGAGAGCAUCUACGGAUGCAGAGGCGGCAGCCUUCGGUAGCGCGAUAGCGCGAACGUUCUCAACUGUGACACGCAAAACGCGUGCUCCGUUGAAUGGAGUUUAUCAUG [A30G U56A G83A C96G A110G]
GGAUCUUCUCGAUCUAACAAAAAAGACAAGUCUGCCACAAAGCUUGAGAGCAUCUUCGGAUGCAGAGGCGGCAGCCUUCGGUGGCGCGAUAGCGCCAACGUUCUCAACUAUGACACGCAAAACGCGUGCUCCGUUGAAAGGAGUUUAUCAUG [A30G U139A]
GGAUCUUCUCGAUCUAACAAAAAAGACAAUUCUGCCCCAAAGCUUGAGAGCAUCUUCGGAUGCAGAGGCGGCAGCCUUCGGUGCCGCGAUAGCGCCUACGUUCUCAACUAUGACACCCAAAACGCGUGCUCCGUUGAAUGGAGUUUUUCAUG [A30U A37C G84C A97U G117C A147U]
GGAUCUUCUCGAUCUAACAAAAAAGACAAUUCUGCCACGAAGCUUGAGAGCAACUUCGGAUGCAGAGGCGGCAGCCUUCGGUGGCGCGAUAGCGGCAACGUUCUCAACUAUGACACGCAAAACGCGUGCUCCGUUGAAUGGAGUUUAUCAUG [A30U A39G U53A C95G]
GGAUCUUCUCGAUCUAACAAAAAAGACAAUUCUGCCACAUAGCUUGAGAGCAUCUUCGGAUGCAGAGGCGGCAGACUUCGGUUGCGCGAUAGCGCCAACGUUCUCAACUAUGACACGCAAAACGCGUGCUGCGCUGAAUGGAGUUUAUCAUG [A30U A40U C75A G83U C131G U134C]
GGAUCUUCUCGAUCUAACAAAAAAGACAAUUCUGCCACAUAGCUUGAGAGCAUCUUCGCAGGCAGAGGCGGCAGCCUUCGGUGGCGCGAUAGCGCCAACGUUCUCAACUAUGACACGCAAAACCCGUGCUCCGUUGAAUGGAGUUUAUCAUG [A30U A40U G59C U61G G124C]
GGAUCUUCUCGAUCUAACAAAAAAGACAAUUCUGCCACAACGCUUGGGAGCAUCUUCGGAUGCAGAGGCGGCAACCUUCGGUGGUGCGAUAGCGCCAACGUUCUCCACUAUGACACGCAAAACGCGUGCUCCGUUGAAUGGAGUUUUUCAAG [A30U A41C A47G G74A C85U A106C A147U U151A]
GGAUCUUCUCGAUCUAACAAAAAAGACAAUUCUGCCACAACGCUUGAGAGCAUAUUCGGAUGCAGAGGCGGCAGCCUUCGGUGGCGCGAUAGCGCCAACGUUCUCAACUAUGACACGCAAAACUCGUGCUCCGUUGAAUGGAGUUUAUCAUG [A30U A41C C54A G124U]
GGAUCUUCUCGAUCUAACAAAAAAGACAAUUCUGCCACAAUGCUUGAGAGCAUCUUCGGAAGCAGAGGCGCCAGCCUUCGGUGGCGCGAUAGCGCCAACGUUCUCAACUAUGACACGCAACCCUCGUGCUCCGUUCAAUGGAGUUUAUCAUG [A30U A41U U61A G71C A121C A122C G124U G136C]
GGAUCUUCUCGAUCUAACAAAAAAGACAAUUCUGCCACAAAGCUUGCGAGCAUCUACGGAUGCAGAGGCGGCAGCGUUCGGUGGCGCGAUAGCGCCAACGUUCUCUACAAUGACACGCAAAACGCGUGCUCCGUUGAAUGGCGUUUAUCAUG [A30U A47C U56A C76G A106U U109A A142C]
GGAUCUUCUCGAUCUAACAAAAAAGACAAUUCUGCCACAAAGCUUGAGAGCCUCUUCGGAUGCAGAGGCGGUAGCCUUCGGUGGCGCGUUAGCGCCUACGUUCUCAACUAUGACACGCAAAACGCGUGCUCGGUUGAAUGGAGUUUUUCAUG [A30U A52C C72U A89U A97U C132G A147U]
GGAUCUUCUCGAUCUAACAAAAAAGACAAUUCUGCCACAAAGCUUGAGAGCGUCUUCGGAUGCAGAGGCGGCAGCCUUCGGUGGCGCGAUGGCGUCAACGUGGUUAACUAUGACACGCAAAACGCGUGCUCCGUUGAAUGGAGUGUAUCAUG [A30U A52G A91G C95U U102G C103G C105U U145G]
GGAUCUUCUCGAUCUAACAAAAAAGACAAUUCUGCCACAAAGCUUGAGAGCAUCUUCGGCUGCAGAGGCGACAGCCUUCGGUUGCGCGAUAGUGCCAACGUUCUCAACUAUGACUCGCAAAACGCGUGCUCCGUUGAAUGGAGUUUAUCAUG [A30U A60C G71A G83U C93U A115U]
GGAUCUUCUCGAUCUAACAAAAAAGACAAUUCUGCCACAAAGCUUGAGAGCAUCUUCGGUUGCAGAGGCGGCAGCCUUCGGUGGCGCUAUAGCGCCAACGUUCUCAACUAUGACACGCAAAACGCGUGCUCCGUUGAAUGGAGUUUAUCAUG [A30U A60U G88U]
GGAUCUUCUCGAUCUAACAAAAAAGACAAUUCUGCCACAAAGCUUGAGAGCAUCUUCGGAUGCAGUGGCGGCAGACUUCGGUGGCGGGAUGGCGCCAACGUUCUCAACUAUGACACGCAAAACGCGUGCUCCCUUAAAUGGAGUUUAUCAUG [A30U A66U C75A C87G A91G G133C G136A]
GGAUCUUCUCGAUCUAACAAAAAAGACAAUUCUGCCACAAAGCUUGAGAGCAUCUUCGGAUGCAGAGGCGGCAGCCUUCGGUGGCGCGUUAGUGCCAACGUUCUCAACUAUGACACGCAAACCGCGUGCUCCGUUGAAUGGAGUUUAUCAUG [A30U A89U C93U A122C]
GGAUCUUCUCGAUCUAACAAAAAAGACAAUUGUGCCACAAAGCUUGAGAGCAUCUUCGGAUGCAGCGGCGGCAGCCUUCGGUGGCGCGAUAGCGGCAACGUUCUCAACUAUGACACGCAAAACUCGUGCUCCGUUGAAUGGAGUUUAUCAUG [A30U C32G A66C C95G G124U]
GGAUCUUCUCGAUCUAACAAAAAAGACAAUUGUGCCACAAAGCUUGAGAGCAUCAUCGGAUGCAGAGGCGGAAGCCUUCGGUGGCGCGAUAGCGCCAACGUUCUCAACUAUGACACGCAAAACGCCUGCUCCGUUGAAUGGAGUUUAUCAUG [A30U C32G U55A C72A G126C]
GGAUCUUCUCGAUCUAACAAAAAAGACAAUUUUGCCACAAAGCUUGAGAGCAUCUUCGGAUGCAGAGAUUGCAGCCUUCGGUGGGGCGAUAGCGCCAACGUUCUCAACUAUGACACGCAAAACGCGUGCUCCGGUGAAUGGAGUUUAUCAUG [A30U C32U G68A C69U G70U C85G U134G]
GGAUCUUCUCGAUCUAACAAAAAAGACAAUUCUGACACAAAGCUUGAGAGCAUCUUCGGAUGCAGAGGCGGCAGCCUUCGGUGGCGAGAUAGCGCCAACGAUCUCAACUAUGACACGCAAAACGCGUGCUCCGUUGAAUGGAGUUUAUCAUG [A30U C35A C87A U101A]
GGAUCUUCUCGAUCUAACAAAAAAGACAAUUCUGCCACAAAGCUUGAGAGACUCUUUGGAUGCAGAGGCGGUAGCCUUCGGUGGCUCGAUAUCUCCAACGUUCUCAACUAUGACAGGCAAAACGCGUGCUCCGUUGAAUGGAGUUUAUCAGG [A30U C51A A52C C57U C72U G86U G92U G94U C116G U151G]
GGAUCUUCUCGAUCUAACAAAAAAGACAAUUCUGCCACAAAGCUUGAGAGCAUAUUCGGAUGCAGAGGCGGCAGCCUUCGGUGGCGCGAUAACGCCAACGUUCUCAACUAUGACACGCAAAACGCGUGCUCCGUAGAAUGGAGUUUAUCAUG [A30U C54A G92A U135A]
GGAUCUUCUCGAUCUAACAAAAAAGACAAUUCUGCCACAAAGCUUGAGAGCAUUUUCCGAUGCAGAGGCGCCAGCCUUCGGUGGCGCGAUAGCGCCAACGUUCUCAACUAUGCCAAGCAGAACGCGUGCUCCGUUGAAUGGAGUUUAUCAUG [A30U C54U G58C G71C A113C C116A A120G]
GGAUCUUCUCGAUCUAACAAAAAAGACAAUUCUGCCACAAAGCUUGAGAGCAUUUUCGGAUGCAGAGGCGGCAGCCAACGGUGGCGCGAUAGUGCCAACGUUCUCAACUAUGACACGCAAAACGCGUGCUCCGUUAAAUGGAGUUUAUCAUG [A30U C54U U77A U78A C93U G136A]
GGAUCUUCUCGAUCUAACAAAAAAGACAAUUCUGCCACAAAGCUUGAGAGCAUCUUCGGAUGGAGAGGCGGCAGCCUUCGGUGGCGCGAUAGCGCCAACGUUCUCAACUAUGACACACAACACGCGUGCUCGGUUGAAUGGAGUUUAUGAUG [A30U C63G G117A A121C C132G C149G]
GGAUCUUCUCGAUCUAACAAAAAAGACAAUUCUGCCACAAAGCUUGAGAGCAUCUUCGGAUGUAGAGACGGCAGCCUUCGGUGGCGAGAUAGCGCCAACGUUCUCAACUAUGACACGCAAAACGCGUACUCCGUUGAAUGGAGUUUCUCAUG [A30U C63U G68A C87A G128A A147C]
GGAUCUUCUCGAUCUAACAAAAAAGACAAUUCUGCCACAAAGCUUGAGAGCAUCUUCGGAUGCAGAGGAGGCAGCCUUCGGUGGCGCGAUAGCGCCAACGUUCUCAACUAUGACACGCAAAACGCGUGCUCCGUUGAAUGGAGUUUAUCAUG [A30U C69A]
GGAUCUUCUCGAUCUAACAAAAAAGACAAUUCUGCCACAAAGCUUGAGAGCAUCUUCGGAUGCAGAGGCGGCAGGCUUCGGUGGAGCGAUAGCGCCAACGUUCUCAACUAUGACACGCAGAACGCGUGCUCCGUUGAAUGGAGUCUAUCAUG [A30U C75G C85A A120G U145C]
GGAUCUUCUCGAUCUAACAAAAAAGACAAUUCUGCCACAAAGCUUGAGAGCAUCUUCGGAUGCAGAGGCGGCAGCCUUCGGUGGAGCGAUAGCGCCAACGUUCUCGACUAUGACACGCAAAACGCGUGCGCAGUUGAAUGGAGUGUACCAUG [A30U C85A A106G U130G C132A U145G U148C]
GGAUCUUCUCGAUCUAACAAAAAAGACAAUUCUGCCACAAAGCUUGAGAGCAUCUUCGGAUGCAGAGGCGGCAGCCUUCGGUGGCGCGAUAGUGCCAACGUUCUCAACUAUGACGCGCAAAACGCGUGCUCCGUUGAAUGGAGUUUAUCAUG [A30U C93U A115G]
